Source: PubChem BioAssay AID588855 (National Center for Advancing Translational Sciences (NCATS), 2011)
In all, about 410,000 compounds went through this assay and about 5,000 (1.2%) were called active. The shares of active, inactive and inconclusive entries below differ from those in the screen. Calls follow the shape of the dose curve; as a rule, active = well fitted inhibition curve with a large enough effect; inconclusive = small, poorly fitted or top-dose-only effect; inactive = no such curve, though single readings can be large or run the other way. A potency beside an inconclusive call is a rough fit, not a confirmed value.

experiment: qHTS for Inhibitors of TGF-b; conditions: HepG2 CAGA-GFP TGF-b/SMAD3 reporter, GFP fluorescence, 18 h, TGF-beta stimulated, 500 pg/mL final; series mostly up to 46.1 µM; also: nearly all actives have a fitted effect of over 65% in size
Outline: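 Inhibition of TGF-beta-driven CAGA-GFP reporter expression in HEPG2 cells is measured by cellular GFP fluorescence after 18 h stimulation with 500 pg/mL recombinant TGF-beta in 1% FBS medium at 37 degrees C.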
Potency is read from the fitted curve at half-maximal effect; tags tell the direction and shape of the fitted curve.

| Compound | Potency |
| --- | --- |
| CC1CCN(C(=O)c2ccc(S(=O)(=O)Cc3cc(F)ccc3F)c([N+](=O)[O-])c2)CC1 | inconclusive: 35.5 µM [inhibitor, single point] |
| CC(C)(C)c1cc(C(=O)N/N=C/c2ccccc2O)n(-c2ccccc2)n1 | inconclusive: 12.6 µM [inhibitor, partial curve, poor fit] |
| COc1ccc(C(=O)OCCc2sc[n+](CC(=O)c3ccccc3)c2C)cc1 | inactive |
| CC(C)(C)c1ccc(OCCCNC2CCCC2)cc1 | inconclusive: 35.5 µM [inhibitor, single point] |
| O=C(O)/C=C/c1cn(Cc2ccccc2)nc1-c1ccc(Cl)cc1 | inconclusive: 3.16 µM [inhibitor, single point] |
| O=C(Cn1cc(S(=O)(=O)Cc2cccc(Cl)c2)c2ccccc21)Nc1ccccc1C(F)(F)F | inactive |
| Cc1occc1C(=O)N/N=C/c1c(O)ccc2ccccc12 | inconclusive: 0.282 µM [inhibitor, full curve, poor fit] |
| Cc1ccc(C(=O)N/N=C2\CCSC2)cc1[N+](=O)[O-] | inconclusive: 17.8 µM [inhibitor, single point] |
| CCn1c(SCC(=O)Nc2nc(-c3ccccc3)cs2)nnc1-c1ccccc1O | inconclusive: 35.5 µM [inhibitor, single point] |
| O=S(=O)(c1ccc2nc(-c3ccccc3)[nH]c2c1)N1CCN(c2ccc(Cl)cc2)CC1 | inconclusive: 22.4 µM [inhibitor, single point] |
| CN1CCN(S(=O)(=O)c2cccc(C(=O)N(Cc3nnc(-c4ccccc4Cl)o3)C3CC3)c2)CC1 | inactive |
| CCC(C)[C@H](NC(=O)N1CC(=O)Nc2ccccc21)C(=O)Nc1nccs1 (some centres not stated) | inactive |
| Cc1ccc(CS/C(Nc2ccccc2C)=C(\C#N)C(=O)NCc2ccco2)c(C)c1 | inconclusive: 25.1 µM [inhibitor, single point] |
| COC(=O)c1sccc1S(=O)(=O)N(CC(=O)Nc1cc(C)ccc1C)c1ccc(C)c(C)c1 | inconclusive: 15.8 µM [inhibitor, single point] |
| CC(OC(=O)c1ccc(O)cc1)C(=O)Nc1nc(-c2ccccc2)cs1 (configuration not stated) | inconclusive: 12.6 µM [inhibitor, partial curve] |
| CC(=O)Nc1cccc(-c2ccnc3c2CC(C(=O)NCCc2ccccc2)O3)c1 (configuration not stated) | inconclusive: 10 µM [inhibitor, partial curve, poor fit] |
| Cc1c(C(=O)NNS(=O)(=O)c2ccccc2)sc(=S)n1C | inconclusive: 35.5 µM [inhibitor, single point] |
| CCc1nn(CC(=O)N2CC(C)CC(C)C2)c(=O)c2cccn12 (configuration not stated) | inactive |
| Cc1ccc(NC(=O)CN2CCC(Cc3ccccc3)CC2)cc1S(=O)(=O)N(C)C | active: 15.8 µM |
| CCOCCc1nnc(NC(=O)C(=O)c2cc(C)n(-c3ccc(C)c(C)c3)c2C)s1 | inconclusive: 22.4 µM [inhibitor, single point] |
| O=C(Nc1ccccc1C(=O)OCc1cc(=O)n2nc(C3CC3)sc2n1)c1ccc(Cl)cc1 | inactive |
| COc1ccc2c(c1)OC[C@H]1[C@H]2N2C(=O)c3ccc(C)cc3NC(=O)[C@@]2(C)[C@H]1c1ccccc1 | inconclusive: 35.5 µM [inhibitor, single point] |
| COc1ccc2[nH]c(=O)c(CN(C3CCCCC3)C(c3nnnn3Cc3ccco3)C(C)C)cc2c1 (configuration not stated) | inconclusive: 15.8 µM [inhibitor, single point] |

| Compound | Potency |
| --- | --- |
| CCCCn1nc2cc(C(=O)NCc3cc(C(F)(F)F)cc(C(F)(F)F)c3)ccc2c1OCC | inactive |
| Cc1cc(C)n(CCC(=O)Nc2ccc(Cl)cc2)n1 | inconclusive: 3.55 µM [inhibitor, partial curve] |
| O=C(N/N=C/c1ccc([N+](=O)[O-])o1)C1CC1 | inconclusive: 14.1 µM [inhibitor, single point] |
| CC1(C)SC(=S)N(/N=C/c2ccccc2)C1N(O)C(=O)Nc1ccc([N+](=O)[O-])cc1 (configuration not stated) | inconclusive: 8.91 µM [inhibitor, partial curve, poor fit] |
| Nc1ncn(C(=S)Nc2ccccc2)n1 | active: 8.91 µM |
| Cc1ccccc1Cn1nc(C)c(NC(=O)c2noc3c2CCc2ccccc2-3)c1C | inconclusive: 25.1 µM [inhibitor, partial curve, poor fit] |
| CCCN(CC(=O)Nc1cc(Cl)ccc1Cl)C(=O)c1ccccc1SCC(=O)N1CCCC1 | inactive |
| O=C(CC1Sc2ncnn2C1=O)Nc1ccccc1 (configuration not stated) | inconclusive: 7.08 µM [inhibitor, full curve, poor fit] |
| Cc1ccc(NN2C(=O)C=C(c3ccccc3)C2=O)cc1 | inconclusive: 22.4 µM [inhibitor, single point] |
| O=C1/C(=C\c2ccco2)SC(=S)N1Cc1ccccc1 | inactive |
| Cc1ccc2c(c1)COc1c3ccc(C(=O)NCC4CC4)cc3nn1-2 | inconclusive: 22.4 µM [inhibitor, single point] |
| NC(=O)CC(NC(=O)Cc1ccc(Br)cc1)c1ccc(NC2CCCCCC2)c([N+](=O)[O-])c1 (configuration not stated) | inactive |
| CCCC(=O)Nc1cc(C)cn(Cc2c(F)cccc2Cl)c1=O | inactive |
| COc1cc(O)c(C(CC(=O)N2CCOCC2)c2cc(OC)c(OC)c(OC)c2)c(OC)c1 (configuration not stated) | inconclusive: 14.1 µM [inhibitor, single point] |
| COc1cccc(/C=N/NC(=O)c2ccncc2)c1OC(=O)c1ccc(Br)cc1 | inconclusive: 6.31 µM [inhibitor, full curve] |
| CCOC(=O)c1sc2ccccc2c1S(=O)(=O)Nc1ccc(OC)c(Cl)c1 | inconclusive: 22.4 µM [inhibitor, single point] |
| Cc1ccc(NC(=O)Nc2nnc(SCC(=O)N(C(C)C)C(C)C)s2)cc1 | inactive |
| COc1ccc(-c2ccc(C)cc2)cc1[C@H]1[C@@H]2C=CCC[C@@]2(C)C(=O)N1Cc1ccccc1 | inconclusive: 22.4 µM [inhibitor, partial curve, poor fit] |
| O=S(=O)(Nc1ccccn1)c1ccc(Oc2ccccc2)cc1 | inconclusive: 35.5 µM [inhibitor, single point] |
| CCC(Oc1nc2ccccc2nc1-c1ccccc1NC(C)=O)C(=O)c1ccccc1 (configuration not stated) | inactive |
| N#Cc1cccc(S(=O)(=O)NCC(=O)NCc2ccc3c(c2)OCO3)c1 | inactive |
| COc1ccc(S(=O)(=O)N(C)C[C@@H]2OCc3cnnn3CCCC(=O)N([C@H](C)CO)C[C@H]2C)cc1 | inconclusive: 11.2 µM [inhibitor, partial curve] |
| NC(=O)c1cccc(-c2ccnc3c2CC(C(=O)Nc2cccc(C(F)(F)F)c2)O3)c1 (configuration not stated) | active: 12.6 µM |

| Compound | Potency |
| --- | --- |
| Cc1cc(C(=O)NC(=S)Nc2ccccc2N2CCCC2)ccc1[N+](=O)[O-] | inactive |
| CN(C(=O)c1cccc(NC(=O)Cc2cccc([N+](=O)[O-])c2)c1)C1CCC1 | inconclusive: 7.08 µM [inhibitor, partial curve, poor fit] |
| CCCCOC(=O)c1ccc(NC(=O)CSC2=Nc3ccccc3C3CC=NN23)cc1 (configuration not stated) | inactive |
| CCOC(=O)C/C(C)=N/NC(=O)CN(c1ccc(Br)cc1)S(=O)(=O)c1ccccc1 | inconclusive: 20 µM [inhibitor, single point] |
| Cc1ccc(N2C=Nc3ccc(C)c4nc(C)cc2c34)cc1 | inactive |
| Cc1cc(O)c(CN2CCN(S(=O)(=O)c3cccs3)CC2)cc1C(C)C | inconclusive: 25.1 µM [inhibitor, single point] |
| O=C(Cc1ccccc1[N+](=O)[O-])Nc1nccs1 | inconclusive: 11.2 µM [inhibitor, partial curve, poor fit] |
| O=C(CS(=O)c1cccc(C(F)(F)F)c1)Nc1ccc(Cl)cc1Cl (configuration not stated) | inconclusive: 11.2 µM [inhibitor, partial curve] |
| CCOC(=O)c1sc2nc(NC(=O)C(C)(C)C)sc2c1C | inconclusive: 20 µM [inhibitor, single point] |
| CCN(CC)S(=O)(=O)c1cccc(-c2nnc(SCCCC(=O)c3ccccc3)o2)c1 | inconclusive: 22.4 µM [inhibitor, single point] |
| CCCc1ccc(C(O)c2ncc(-c3cccc(F)c3)[nH]2)cc1 (configuration not stated) | inconclusive: 2.82 µM [inhibitor, partial curve, poor fit] |
| COc1ccc(Cc2c(C3CCCCC3)nc3ccc(Br)cn23)c(C)c1 | inactive |
| CCOCCCn1c(SCC(=O)Nc2ccccc2CC)nc2ccccc2c1=O | inconclusive: 0.631 µM [inhibitor, partial curve, poor fit] |
| CCCCCN1N=C(C)CC1=O | inconclusive: 35.5 µM [inhibitor, single point] |
| Cc1ccc(F)c(S(=O)(=O)NC(=O)C2(C)CCN2C(=O)c2ccc(C(F)(F)F)nc2C)c1 (configuration not stated) | inactive |
| O=C(O)CCC(=O)NNC(=O)COc1ccc2ccccc2c1Br | inactive |
| CCOc1ccc2nc(Cl)sc2c1 | inconclusive: 28.2 µM [inhibitor, single point] |
| O=C(O)c1sc(Nc2ccccc2)nc1-c1ccccc1 | inactive |
| CCCCC(O)(c1ccc(F)cc1)C(CN1CCOCC1)c1ccc(Cl)cc1 (configuration not stated) | inconclusive: 12.6 µM [inhibitor, partial curve, poor fit] |
| Cc1cccc(Cn2ccc(NC(=O)c3ccc4c(c3)OCO4)n2)c1 | inactive |
| O=C(COC(=O)C1(c2ccc(F)cc2)CCCC1)NCc1ccc2c(c1)OCO2 | inconclusive: 11.2 µM [inhibitor, partial curve] |
